Measurements published in the supplement of paper PMC9151546.
Repeats are few or missing, and single values can be far off.

Columns and labels:
[1] = system: CHO-K1; assay: hypodiploid nuclei frequency (% of nucleated events); higher = more hypodiploid events (aneugenic)
Procedure: (§1)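 Flow-cytometric in vitro micronucleus assay (Litron MicroFlow) in CHO-K1 cells in 96-well plates, 19 concentrations (4.5-200 µM, n=1 per concentration). Without S9, cells were exposed for 24 h and sampled at 48 h. With Aroclor 1254-induced rat liver S9, cells were exposed for 3-4 h and sampled at 27-28 h. Read-outs are %MN and %hypodiploid nuclei relative to nucleated events, and relative survival as the nuclei-to-bead ratio versus the 1% DMSO vehicle control (x100).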

[2] = system: CHO-K1; assay: micronucleus frequency (% of nucleated events); higher = more micronuclei (genotoxic)
[3] = system: CHO-K1; assay: relative survival (nuclei to bead ratio vs DMSO control) (% of vehicle control); higher = more surviving cells
Procedure: as §1
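For hypodiploid nuclei frequency (% of nucleated events) in this document: hypodiploid nuclei gated on a flow cytometer with 488 nm excitation after SYTOX Green staining, cultures at 37 °C, positive controls vinblastine without S9 and cyclophosphamide with S9.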
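For micronucleus frequency (% of nucleated events) in this document: cells lysed with nuclei stained by SYTOX Green, then micronucleus-gated events counted against nucleated events by flow cytometry with 488 nm excitation.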
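For relative survival (nuclei to bead ratio vs DMSO control) in this document: Lysed-cell nuclei stained with SYTOX Green and counted against counting beads by flow cytometry at 488 nm excitation, with vinblastine (no S9) and cyclophosphamide (plus S9) as positive controls.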

CCCCC(CC)CO (stereo unspecified) [2-Ethyl-1-hexanol]
Details	hypodiploid nuclei frequency, [1] [%]	micronucleus frequency, [2] [%]	relative survival, [3]
concentration: 4.5 (µM), S9 metabolic activation: with S9, exposure time: 3-4 hours	0.26	0.86	117
concentration: 4.5 (µM), S9 metabolic activation: without S9, exposure time: 24 hours	0.44	1.3	109
concentration: 5.63 (µM), S9 metabolic activation: with S9, exposure time: 3-4 hours	0.22	1.38	99.7
concentration: 5.63 (µM), S9 metabolic activation: without S9, exposure time: 24 hours	0.52	0.96	127
concentration: 7.04 (µM), S9 metabolic activation: with S9, exposure time: 3-4 hours	0.3	1.68	102
concentration: 7.04 (µM), S9 metabolic activation: without S9, exposure time: 24 hours	0.58	1.1	114
concentration: 8.8 (µM), S9 metabolic activation: with S9, exposure time: 3-4 hours	0.24	1.04	101
concentration: 8.8 (µM), S9 metabolic activation: without S9, exposure time: 24 hours	0.46	1.48	90.1
concentration: 11 (µM), S9 metabolic activation: with S9, exposure time: 3-4 hours	0.12	1.2	108
concentration: 11 (µM), S9 metabolic activation: without S9, exposure time: 24 hours	0.42	1.12	109
concentration: 13.7 (µM), S9 metabolic activation: with S9, exposure time: 3-4 hours	0.16	0.92	99.1
concentration: 13.7 (µM), S9 metabolic activation: without S9, exposure time: 24 hours	0.54	1.02	105
concentration: 17.2 (µM), S9 metabolic activation: with S9, exposure time: 3-4 hours	0.26	0.92	127
concentration: 17.2 (µM), S9 metabolic activation: without S9, exposure time: 24 hours	0.34	0.94	114
concentration: 21.5 (µM), S9 metabolic activation: with S9, exposure time: 3-4 hours	0.18	1.12	129
concentration: 21.5 (µM), S9 metabolic activation: without S9, exposure time: 24 hours	0.38	0.94	90.1
concentration: 26.8 (µM), S9 metabolic activation: with S9, exposure time: 3-4 hours	0.1	0.96	122
concentration: 26.8 (µM), S9 metabolic activation: without S9, exposure time: 24 hours	0.58	1.64	91.1
concentration: 33.6 (µM), S9 metabolic activation: with S9, exposure time: 3-4 hours	0.16	1.02	125
concentration: 33.6 (µM), S9 metabolic activation: without S9, exposure time: 24 hours	0.7	1.34	105
concentration: 41.9 (µM), S9 metabolic activation: with S9, exposure time: 3-4 hours	0.2	1.3	105
concentration: 41.9 (µM), S9 metabolic activation: without S9, exposure time: 24 hours	0.64	1.58	127
concentration: 52.4 (µM), S9 metabolic activation: with S9, exposure time: 3-4 hours	0.26	0.84	100
concentration: 52.4 (µM), S9 metabolic activation: without S9, exposure time: 24 hours	0.64	1.8	103
concentration: 65.5 (µM), S9 metabolic activation: with S9, exposure time: 3-4 hours	0.16	0.96	99.4
concentration: 65.5 (µM), S9 metabolic activation: without S9, exposure time: 24 hours	0.84	1.34	119
concentration: 81.9 (µM), S9 metabolic activation: with S9, exposure time: 3-4 hours	0.14	1.12	97.4
concentration: 81.9 (µM), S9 metabolic activation: without S9, exposure time: 24 hours	0.64	1.72	95.7
concentration: 102 (µM), S9 metabolic activation: with S9, exposure time: 3-4 hours	0.2	1.66	95.2
concentration: 102 (µM), S9 metabolic activation: without S9, exposure time: 24 hours	1	1.62	101
concentration: 128 (µM), S9 metabolic activation: with S9, exposure time: 3-4 hours	0.12	1.16	93.3
concentration: 128 (µM), S9 metabolic activation: without S9, exposure time: 24 hours	0.56	1.38	103
concentration: 160 (µM), S9 metabolic activation: with S9, exposure time: 3-4 hours	0.16	1.02	97.4
concentration: 160 (µM), S9 metabolic activation: without S9, exposure time: 24 hours	0.9	1.64	96.3
concentration: 200 (µM), S9 metabolic activation: with S9, exposure time: 3-4 hours	0.14	1.3	78.1
concentration: 200 (µM), S9 metabolic activation: without S9, exposure time: 24 hours	1	1.98	81.1

COc1ccc([N+](=O)[O-])cc1N [2-Methoxy-5-nitroaniline]
Details	hypodiploid nuclei frequency, [1] [%]	micronucleus frequency, [2] [%]	relative survival, [3]
concentration: 4.5 (µM), S9 metabolic activation: with S9, exposure time: 3-4 hours	0.2	0.82	132
concentration: 4.5 (µM), S9 metabolic activation: without S9, exposure time: 24 hours	1.44	1.92	106
concentration: 5.63 (µM), S9 metabolic activation: with S9, exposure time: 3-4 hours	0.22	0.96	121
concentration: 5.63 (µM), S9 metabolic activation: without S9, exposure time: 24 hours	0.62	1.34	99
concentration: 7.04 (µM), S9 metabolic activation: with S9, exposure time: 3-4 hours	0.22	0.96	126
concentration: 7.04 (µM), S9 metabolic activation: without S9, exposure time: 24 hours	1.08	2.28	123
concentration: 8.8 (µM), S9 metabolic activation: with S9, exposure time: 3-4 hours	0.24	1.06	119
concentration: 8.8 (µM), S9 metabolic activation: without S9, exposure time: 24 hours	0.96	1.44	120
concentration: 11 (µM), S9 metabolic activation: with S9, exposure time: 3-4 hours	0.2	1.06	97.9
concentration: 11 (µM), S9 metabolic activation: without S9, exposure time: 24 hours	0.96	1.74	116
concentration: 13.7 (µM), S9 metabolic activation: with S9, exposure time: 3-4 hours	0.12	0.98	135
concentration: 13.7 (µM), S9 metabolic activation: without S9, exposure time: 24 hours	0.8	1.04	108
concentration: 17.2 (µM), S9 metabolic activation: with S9, exposure time: 3-4 hours	0.18	0.94	125
concentration: 17.2 (µM), S9 metabolic activation: without S9, exposure time: 24 hours	1.14	1.22	121
concentration: 21.5 (µM), S9 metabolic activation: with S9, exposure time: 3-4 hours	0.42	1.1	120
concentration: 21.5 (µM), S9 metabolic activation: without S9, exposure time: 24 hours	1.06	1.78	107
concentration: 26.8 (µM), S9 metabolic activation: with S9, exposure time: 3-4 hours	0.3	1.46	133
concentration: 26.8 (µM), S9 metabolic activation: without S9, exposure time: 24 hours	0.8	1.7	109
concentration: 33.6 (µM), S9 metabolic activation: with S9, exposure time: 3-4 hours	0.2	0.92	110
concentration: 33.6 (µM), S9 metabolic activation: without S9, exposure time: 24 hours	0.88	1.72	99.7
concentration: 41.9 (µM), S9 metabolic activation: with S9, exposure time: 3-4 hours	0.28	0.82	120
concentration: 41.9 (µM), S9 metabolic activation: without S9, exposure time: 24 hours	1.22	1.92	104
concentration: 52.4 (µM), S9 metabolic activation: with S9, exposure time: 3-4 hours	0.36	1.06	106
concentration: 52.4 (µM), S9 metabolic activation: without S9, exposure time: 24 hours	0.76	1.84	102
concentration: 65.5 (µM), S9 metabolic activation: with S9, exposure time: 3-4 hours	0.22	1.1	88.4
concentration: 65.5 (µM), S9 metabolic activation: without S9, exposure time: 24 hours	1.16	1.5	102
concentration: 81.9 (µM), S9 metabolic activation: with S9, exposure time: 3-4 hours	0.2	1.2	109
concentration: 81.9 (µM), S9 metabolic activation: without S9, exposure time: 24 hours	1.58	1.68	98.6
concentration: 102 (µM), S9 metabolic activation: with S9, exposure time: 3-4 hours	0.24	0.9	124
concentration: 102 (µM), S9 metabolic activation: without S9, exposure time: 24 hours	1.46	1.46	82.6
concentration: 128 (µM), S9 metabolic activation: with S9, exposure time: 3-4 hours	0.18	1.06	118
concentration: 128 (µM), S9 metabolic activation: without S9, exposure time: 24 hours	1.92	1.38	88.7
concentration: 160 (µM), S9 metabolic activation: with S9, exposure time: 3-4 hours	0.2	1.06	101
concentration: 160 (µM), S9 metabolic activation: without S9, exposure time: 24 hours	2.26	1.4	88.2
concentration: 200 (µM), S9 metabolic activation: with S9, exposure time: 3-4 hours	0.14	0.99	80.8
concentration: 200 (µM), S9 metabolic activation: without S9, exposure time: 24 hours	1.9	2.08	77.4
